Measurements published in the supplement of paper PMC3334620.
Whole data set: some 33,000 sequences, median “E-score (-0.5 to 0.5)” near -0.032, cut for the highest 2% near 0.36. The list shows a part of the results.

What follows are sequences tested against T1, Sko1 (UniProt Q02100) (assay: PBM E-score (8-mer binding enrichment) (E-score (-0.5 to 0.5)); higher = stronger / more preferred TF binding; most listed sequences are background and not binding sites). Conditions: protein concentration: 200 nM; construct: GST-full length.
T1 sequence: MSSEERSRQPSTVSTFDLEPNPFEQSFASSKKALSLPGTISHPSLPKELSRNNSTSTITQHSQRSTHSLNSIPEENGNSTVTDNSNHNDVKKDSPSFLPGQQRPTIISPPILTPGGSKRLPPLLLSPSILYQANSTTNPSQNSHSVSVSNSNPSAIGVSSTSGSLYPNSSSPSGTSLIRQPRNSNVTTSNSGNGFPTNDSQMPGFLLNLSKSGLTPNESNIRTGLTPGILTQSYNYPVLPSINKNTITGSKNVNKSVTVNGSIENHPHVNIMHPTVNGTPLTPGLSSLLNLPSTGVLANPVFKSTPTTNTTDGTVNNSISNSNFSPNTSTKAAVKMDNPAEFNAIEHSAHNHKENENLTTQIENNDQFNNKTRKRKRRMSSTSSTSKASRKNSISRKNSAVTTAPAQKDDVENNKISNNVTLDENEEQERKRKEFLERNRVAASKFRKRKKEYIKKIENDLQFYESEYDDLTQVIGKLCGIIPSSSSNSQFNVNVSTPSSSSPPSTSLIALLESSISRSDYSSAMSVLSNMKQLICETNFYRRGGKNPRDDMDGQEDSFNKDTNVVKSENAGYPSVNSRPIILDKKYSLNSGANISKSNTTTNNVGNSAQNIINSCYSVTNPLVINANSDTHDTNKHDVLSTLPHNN
Summary of the method: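 Masliner-normalised scans of fluorescent anti-GST signal were the basis for scoring. That signal came from GST-tagged yeast transcription factors applied at about 100-200 nM to double-stranded universal all-10-mer Agilent arrays on fresh or once-stripped slides. Each ungapped eight-base word, pooled with its reverse complement, received an E-score from the Universal PBM Analysis Suite.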
AAGCCAAG was tested, and the “PBM E-score” value was -0.265. In the case of GGGCTACC, the “PBM E-score” value was -0.198. CTGCGACA was tested, and the “PBM E-score” value was 0.0631. For CACACGGA, the “PBM E-score” value was -0.167. AGCATGCA was tested, and the “PBM E-score” value was -0.0156. In the case of AGACACCT, the “PBM E-score” value was -0.236. For CACTAATA, the “PBM E-score” value was 0.169. In the case of CTCAAGAG, the “PBM E-score” value was -0.332. In the case of AGCTCTAA, the “PBM E-score” value was -0.0484. For ATATTGTA, the “PBM E-score” value was 0.166. For CCTTACCG, the “PBM E-score” value was -0.0732. ATGTAGAC was tested, and the “PBM E-score” value was 0.139. For GTATTGTA, the “PBM E-score” value was 0.255. In the case of TAGGATGA, the “PBM E-score” value was 0.136. In the case of ATAGTTAG, the “PBM E-score” value was -0.0178. In the case of CGGTGGAC, the “PBM E-score” value was -0.274. GATCGATC was tested, and the “PBM E-score” value was 0.00803. CACTCGAG was tested, and the “PBM E-score” value was -0.2. In the case of GATGTGAC, the “PBM E-score” value was 0.119. For CCTCCTCC, the “PBM E-score” value was -0.216. With CCTGGAGA the “PBM E-score” value was -0.00886. For GACATGGA, the “PBM E-score” value was 0.0301. CAACTACA was tested, and the “PBM E-score” value was 0.084. CCCTGGGA was tested, and the “PBM E-score” value was -0.299. For ATGTACCA, the “PBM E-score” value was 0.159. For GCCAGCCA, the “PBM E-score” value was -0.129. For TAATGTAA, the “PBM E-score” value was 0.224. For AGCAGCCA, the “PBM E-score” value was -0.0298. In the case of AGAAACCC, the “PBM E-score” value was -0.16. CCCTGAAG was tested, and the “PBM E-score” value was -0.257. GACTTGAA was tested, and the “PBM E-score” value was -0.169. For AGAAAGCC, the “PBM E-score” value was 0.108. For CGTTCTAC, the “PBM E-score” value was -0.0542. For ACCCGCGG, the “PBM E-score” value was -0.0735. With CTCTCCTC the “PBM E-score” value was -0.309. For GCTTACAA, the “PBM E-score” value was 0.1. With AGCCTCGA the “PBM E-score” value was -0.204. For AAAGGGAT, the “PBM E-score” value was -0.115. In the case of AGTCACCG, the “PBM E-score” value was -0.0759. CAAGAAAA was tested, and the “PBM E-score” value was 0.177. With CAATGGAG the “PBM E-score” value was -0.202. For TACCCGCA, the “PBM E-score” value was -0.0911. With CTCGGGCA the “PBM E-score” value was -0.129. For CTTAGTGA, the “PBM E-score” value was 0.0175. AGACCATA was tested, and the “PBM E-score” value was 0.0157. For CGAGCCGA, the “PBM E-score” value was -0.218. In the case of ATGACTCC, the “PBM E-score” value was -0.00531. With GGTACCCA the “PBM E-score” value was -0.0882. With AAGGGCCG the “PBM E-score” value was -0.147. In the case of AACATGCC, the “PBM E-score” value was -0.18. In the case of ATTACCAA, the “PBM E-score” value was 0.175. For CCGCTACA, the “PBM E-score” value was -0.291. With GCAAGTCC the “PBM E-score” value was -0.271. AAACAGAC was tested, and the “PBM E-score” value was 0.156. With GGTGAATA the “PBM E-score” value was -0.0192. With ACGGACTA the “PBM E-score” value was 0.0518. CCGTCGCC was tested, and the “PBM E-score” value was -0.234. ATCTGATC was tested, and the “PBM E-score” value was 0.0583. With CGCTTAAG the “PBM E-score” value was 0.0271. For TAACCGAA, the “PBM E-score” value was -0.219. In the case of AACGTTCA, the “PBM E-score” value was 0.0648. With ATCAAAAT the “PBM E-score” value was 0.136. For GGTAGGAA, the “PBM E-score” value was -0.141. For CATGCGTA, the “PBM E-score” value was 0.38. For AGGGCATC, the “PBM E-score” value was -0.137. With AATACTAA the “PBM E-score” value was 0.206. CCAAGAAA was tested, and the “PBM E-score” value was 0.094. With TGCACGCA the “PBM E-score” value was 0.193. With CATCCAGG the “PBM E-score” value was -0.301. With GGAACCAC the “PBM E-score” value was -0.0513. In the case of AGCGTATA, the “PBM E-score” value was 0.15. In the case of AAGCCGGC, the “PBM E-score” value was -0.221. ATATACTC was tested, and the “PBM E-score” value was -0.043. With CACTATAA the “PBM E-score” value was 0.00593. With ACGCAGCT the “PBM E-score” value was 0.204. In the case of AGCAATTG, the “PBM E-score” value was 0.155. CCAAGGTC was tested, and the “PBM E-score” value was -0.112. For GCGGTCTA, the “PBM E-score” value was 0.0211. With AAATCCGA the “PBM E-score” value was -0.0131. CGTGGTAG was tested, and the “PBM E-score” value was -0.0615. For GTGACCTA, the “PBM E-score” value was 0.188. For CGCTGATC, the “PBM E-score” value was -0.199. For CCCCATAC, the “PBM E-score” value was 0.0384. CCTTGTAC was tested, and the “PBM E-score” value was -0.131. For AGCTCAGG, the “PBM E-score” value was 0.0455. For AGTTTTGG, the “PBM E-score” value was -0.0638. For CCAACGGA, the “PBM E-score” value was -0.209. For AACGATCT, the “PBM E-score” value was -0.0442. With ATACAGGA the “PBM E-score” value was 0.00041. In the case of GCTACTCA, the “PBM E-score” value was 0.00698. With AGCGCACT the “PBM E-score” value was -0.177. With ACCATCGG the “PBM E-score” value was -0.172. In the case of ACCGCGTA, the “PBM E-score” value was 0.228. In the case of CTCAACTC, the “PBM E-score” value was -0.016. With AGAAACTC the “PBM E-score” value was 0.0471. For CCGGTCAC, the “PBM E-score” value was -0.178. With AGGGACCA the “PBM E-score” value was -0.151. In the case of AGTCTACC, the “PBM E-score” value was -0.199. In the case of ACTGTTAG, the “PBM E-score” value was -0.116. For GCTCCGCC, the “PBM E-score” value was -0.256. With ACGTTCGG the “PBM E-score” value was 0.0529. In the case of GCACGAGC, the “PBM E-score” value was -0.179. With GCATAGAC the “PBM E-score” value was -0.0955. For AGAAACAT, the “PBM E-score” value was 0.152. For CACTAACC, the “PBM E-score” value was -0.0646. GACACCCC was tested, and the “PBM E-score” value was -0.0731. In the case of AGGACAGC, the “PBM E-score” value was -0.144. In the case of CGAAGTGA, the “PBM E-score” value was 0.0979. For ACAAGTGA, the “PBM E-score” value was 0.109. For ATGAGCAA, the “PBM E-score” value was 0.0476. With AAGACGAT the “PBM E-score” value was 0.25. GCGTACTA was tested, and the “PBM E-score” value was 0.232. In the case of AGCGCGCC, the “PBM E-score” value was -0.14. For AAAGGTAC, the “PBM E-score” value was -0.0964. With AATCGATG the “PBM E-score” value was 0.255. With CATGTCAC the “PBM E-score” value was 0.249. For ATACTGAG, the “PBM E-score” value was 0.0933. For TCCCCCGA, the “PBM E-score” value was -0.431. In the case of CCAAAATA, the “PBM E-score” value was 0.057. For ATGCGAAG, the “PBM E-score” value was 0.0576. In the case of ATCCGAGG, the “PBM E-score” value was -0.0521. With AGGTTGCA the “PBM E-score” value was 0.0863. For CAGGCCAG, the “PBM E-score” value was -0.289. With CCAGGAGG the “PBM E-score” value was -0.234. In the case of GATGGTTA, the “PBM E-score” value was 0.107. For CAGACAAG, the “PBM E-score” value was -0.15. In the case of AAATCGAA, the “PBM E-score” value was 0.0851. With ATTAGAAG the “PBM E-score” value was 0.0144. With CAACAGAA the “PBM E-score” value was -0.0413. For CTAAATGC, the “PBM E-score” value was 0.084. In the case of GGGGGAAA, the “PBM E-score” value was -0.261. With AAAGGGAA the “PBM E-score” value was -0.21. With AACGAATG the “PBM E-score” value was 0.162. In the case of CAGTATAC, the “PBM E-score” value was 0.0943. In the case of CGGGGTTC, the “PBM E-score” value was -0.253. CAAATACG was tested, and the “PBM E-score” value was 0.319. With ATTCAGCA the “PBM E-score” value was 0.00168. CAAAGAGC was tested, and the “PBM E-score” value was -0.157. GGAGCCCC was tested, and the “PBM E-score” value was -0.196. CTTTTCAA was tested, and the “PBM E-score” value was 0.0353. In the case of GAAAATAC, the “PBM E-score” value was 0.142. For CGCCGAGC, the “PBM E-score” value was -0.134. CCTTGTGC was tested, and the “PBM E-score” value was -0.31. GAGGTTAC was tested, and the “PBM E-score” value was 0.0947. With TGCCCCAA the “PBM E-score” value was -0.161. CGTAGACA was tested, and the “PBM E-score” value was 0.264. In the case of CCGTAAAG, the “PBM E-score” value was 0.0256. In the case of AAATCATG, the “PBM E-score” value was 0.00352. In the case of CTGGTGGA, the “PBM E-score” value was -0.185. For GGCGCCCA, the “PBM E-score” value was -0.0348. GGCGGACA was tested, and the “PBM E-score” value was -0.192. In the case of ACTCCCCG, the “PBM E-score” value was -0.144. For AATTGCCG, the “PBM E-score” value was -0.152. With GCCAGTTA the “PBM E-score” value was 0.0572. With CGACCCTA the “PBM E-score” value was -0.235. In the case of CTTAAATA, the “PBM E-score” value was -0.0369. With AGTCGTAT the “PBM E-score” value was 0.0845. GGTGACCA was tested, and the “PBM E-score” value was -0.137. With GGCTTGGA the “PBM E-score” value was -0.184. In the case of CCGATGCG, the “PBM E-score” value was -0.123. For CGGTACGA, the “PBM E-score” value was 0.186. ACCCATTA was tested, and the “PBM E-score” value was -0.0424. For CAAGTGTG, the “PBM E-score” value was -0.0161. In the case of AAGGGGCT, the “PBM E-score” value was -0.162. For CGAACACG, the “PBM E-score” value was 0.163. With CCCACGCG the “PBM E-score” value was -0.11. For GTGCTTGA, the “PBM E-score” value was 0.101. For GCGTATCC, the “PBM E-score” value was 0.142. With ACCATAGG the “PBM E-score” value was -0.232. In the case of CGAAGTCG, the “PBM E-score” value was 0.168. For AATAAAAA, the “PBM E-score” value was 0.21. With GAGTTAGA the “PBM E-score” value was 0.0048.
